Measured values reported in article PMC5173251.
Results are given in words; binding and its absence hold for the method and conditions named. Binding seen in cells or lysates may run through a third protein. Some results given as binding are weak or reduced against the parent protein; the word gives no strength. Tags and fused reporters may be left off the sequences shown.

Protein sequences, listed by entry. Tags and fused reporters are not part of them.
UniProt Q558Z2: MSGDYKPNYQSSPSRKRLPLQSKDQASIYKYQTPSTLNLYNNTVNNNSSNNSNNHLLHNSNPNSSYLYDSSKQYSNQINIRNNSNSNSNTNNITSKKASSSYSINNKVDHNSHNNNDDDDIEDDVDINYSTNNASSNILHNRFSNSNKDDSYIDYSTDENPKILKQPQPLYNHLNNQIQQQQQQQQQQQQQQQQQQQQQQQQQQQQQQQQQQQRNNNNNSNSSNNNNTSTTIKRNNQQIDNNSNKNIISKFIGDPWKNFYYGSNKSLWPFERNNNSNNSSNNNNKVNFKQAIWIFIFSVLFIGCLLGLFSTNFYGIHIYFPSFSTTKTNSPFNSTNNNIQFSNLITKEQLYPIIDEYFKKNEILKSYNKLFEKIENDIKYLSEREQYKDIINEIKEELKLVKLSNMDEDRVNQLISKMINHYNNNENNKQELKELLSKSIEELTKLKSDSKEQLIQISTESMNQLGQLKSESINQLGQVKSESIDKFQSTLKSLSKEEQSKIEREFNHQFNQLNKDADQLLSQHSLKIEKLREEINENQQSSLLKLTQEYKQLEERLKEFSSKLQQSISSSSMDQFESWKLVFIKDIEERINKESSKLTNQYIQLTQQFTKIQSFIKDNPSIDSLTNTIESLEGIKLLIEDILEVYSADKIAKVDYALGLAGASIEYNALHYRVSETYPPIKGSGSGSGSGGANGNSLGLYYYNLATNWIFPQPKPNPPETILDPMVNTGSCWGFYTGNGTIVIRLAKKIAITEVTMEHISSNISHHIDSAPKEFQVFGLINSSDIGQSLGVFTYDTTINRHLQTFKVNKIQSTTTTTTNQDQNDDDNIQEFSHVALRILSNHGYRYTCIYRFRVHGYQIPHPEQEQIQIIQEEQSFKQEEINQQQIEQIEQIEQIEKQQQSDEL

Biological target: T1, GFP-DdNKAP (full length DdNKAP, aa 1-510) (D. discoideum) (UniProt Q55ED4)
T1 sequence: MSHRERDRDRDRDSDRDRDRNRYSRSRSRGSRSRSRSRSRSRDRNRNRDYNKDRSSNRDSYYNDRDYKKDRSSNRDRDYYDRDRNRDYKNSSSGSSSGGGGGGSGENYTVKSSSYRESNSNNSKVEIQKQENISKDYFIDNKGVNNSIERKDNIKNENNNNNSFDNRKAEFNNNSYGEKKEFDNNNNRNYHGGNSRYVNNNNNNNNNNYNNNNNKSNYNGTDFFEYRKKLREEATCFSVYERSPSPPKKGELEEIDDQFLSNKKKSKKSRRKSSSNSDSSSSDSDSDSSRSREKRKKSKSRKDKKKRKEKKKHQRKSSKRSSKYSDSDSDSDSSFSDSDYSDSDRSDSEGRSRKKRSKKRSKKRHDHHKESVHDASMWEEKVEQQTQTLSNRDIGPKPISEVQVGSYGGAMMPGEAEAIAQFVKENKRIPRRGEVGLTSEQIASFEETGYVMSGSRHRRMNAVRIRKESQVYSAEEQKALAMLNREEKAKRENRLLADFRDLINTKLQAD
Test: co-IP; GFP-Trap_A agarose beads, extracts of AX2 cells expressing GFP or GFP-DdNKAP; 50 mM Tris-HCl pH 7.4, 100 mM NaCl, 1% NP 40, 0.1% SDS, 0.5% sodium deoxycholate; blot with Sun-1 mAb K55-432-2 and GFP mAb K3-184-2

Sun-1 (endogenous) (from UniProt Q558Z2 1-905)
binding: binds
